# Measurements from PubChem BioAssay AID1745853 (National Center for Advancing Translational Sciences (NCATS), 2022).
# Some of the results follow. These are further read-outs of the screen, such as a control signal, another cell line or another target. No call is given for them.
# Tests used:
# Experiment in all cases: Primary Screen for Target Class Profiling of Small Molecule Inhibitors of Methyltransferases
# [1] = biological target: Glycine N-methyltransferase (Homo sapiens) (UniProt Q14749); conditions: purified enzyme, MTase-Glo SAH luminescence; measured here: GNMT inhibition; at 40 µM; stronger effect = lower value
# Method in brief: (§1)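 Each enzyme was reacted with SAM and its substrate, with compounds tested once at 40 uM; SAH formed was read by MTase-Glo luminescence.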
# [2] = biological target: Guanidinoacetate N-methyltransferase (Homo sapiens) (UniProt Q14353); conditions: purified enzyme, MTase-Glo SAH luminescence; measured here: GAMT inhibition; at 40 µM; stronger effect = lower value
# Method in brief: as §1
# [3] = biological target: Histamine N-methyltransferase (Homo sapiens) (UniProt P50135); conditions: purified enzyme, MTase-Glo SAH luminescence; measured here: HNMT inhibition; at 40 µM; stronger effect = lower value
# Method in brief: as §1
# [4] = biological target: Nicotinamide N-methyltransferase (Homo sapiens) (UniProt P40261); conditions: purified enzyme, MTase-Glo SAH luminescence; measured here: NNMT inhibition; at 40 µM; stronger effect = lower value
# Method in brief: as §1
# [5] = biological target: Phenylethanolamine N-methyltransferase (Homo sapiens) (UniProt P11086); conditions: purified enzyme, MTase-Glo SAH luminescence; measured here: PNMT inhibition; at 40 µM; stronger effect = lower value
# Method in brief: as §1
# % is scaled to controls: 0 for no effect and ±100 for the full control effect.
SMILES,"activity change, negative = inhibition [1] [%]","activity change, negative = inhibition [2] [%]","activity change, negative = inhibition [3] [%]","activity change, negative = inhibition [4] [%]","activity change, negative = inhibition [5] [%]"
Cc1ccc(NC(=O)Cn2nc3n(Cc4ccc(F)cc4)c(=O)c4ccccc4n3c2=O)c(C)c1,-2.51,-0.782,0.727,-1.84,-1.88
CN1C(=O)c2cc(C(=O)NCc3cccs3)nn2CC1(C)C(=O)NC1CCCC1 (stereo not given),1.05,-0.09,-1.08,-2.58,-3.48
Cc1ccc(NC(=O)O[C@@H]2CC[C@]3(C)C(CC[C@@H](O)[C@H]3CC(=O)NCc3ccccc3)[C@]2(C)CO)cc1 (stereo not given in full),-1.82,-7.85,-0.748,-7.12,-5.85
Cc1onc(-c2ccccc2)c1C(=O)N1CCN(c2ccc([N+](=O)[O-])cc2Cl)CC1,3.73,-2.55,10.7,-22.1,-9.79
CC1(C(=O)NCc2ccc(Cl)cc2)Cn2c(nc3ccccc32)C(=O)N1C1CC1 (stereo not given),-8.46,1.26,-0.131,0.519,-1.69
CN(Cc1cccnc1)Cc1ccccc1C(F)(F)F,-1.85,-4.46,-0.955,-5.8,-11.1
CCCN1C(=O)c2cc(C(=O)NCc3ccc(OCC)c(OC)c3)nn2CC1(C)C(=O)NC1CCCC1 (stereo not given),2.63,0,5.73,5.91,3.8
CC1CCCCN1CCNC(=O)Cn1ccc2cc(S(=O)(=O)N3CCCCC3)ccc21 (stereo not given),-1.47,-0.314,-33.2,-1.57,-4.03
COc1ccc(C(=O)Nc2ccc3c(c2)C(=O)N(C)C2=NCCN23)cc1,-1.44,0,4.86,-0.582,2.7
COCCn1ccc2c(C3=CCOCC3)nc(-c3cccc4[nH]ccc34)cc21,-68.1,-52.1,-27.4,-38.9,-86.5
CN1CC(=O)N(CC(=O)N[C@@H]2COCC[C@@H]2OCc2cscn2)C1=O,-4.38,-8.84,-3.06,-6.76,-6.52
CC(C)=CC1C[C@](C)(O)[C@@H]2[C@H]3CCC4[C@@]5(C)CC[C@H](O[C@@H]6OC[C@H](O)[C@H](O[C@@H]7O[C@H](CO[C@@H]8O[C@H](CO)[C@@H](O)[C@H](O)[C@H]8O)[C@@H](O)[C@H](O)[C@H]7O)[C@H]6O[C@@H]6O[C@@H](C)[C@H](O)[C@@H](O)[C@H]6O)C(C)(C)[C@@H]5CC[C@@]4(C)[C@@]34CO[C@@]2(C4)O1 (stereo not given in full),-0.09,1.85,7.57,-5.98,8.82
CC(C)=CC(=O)N[C@H]1C[C@@H](C(=O)N[C@H](Cc2ccccc2)C(N)=O)N(C(=O)C=C(C)C)C1,-3.39,-8.02,-2.62,-10.2,-3.46
O=C(O)c1ccc(C2Nc3c(F)cc(F)cc3C3C=CCC32)cc1 (stereo not given),-12.9,0.782,3.69,-2.51,-6.08
